# Measured values as given in publication PMC9911399, “Two distinct binding modes provide the RNA-binding protein RbFox with extraordinary sequence specificity”.
# Changes are numbered by the printed parent chain; changes in the protein carry UniProt numbers. The list shows a part of the results.
# T1: RBFOX1 RRM (Homo sapiens, UniProt Q9NWB1 109-208)
# T1 sequence: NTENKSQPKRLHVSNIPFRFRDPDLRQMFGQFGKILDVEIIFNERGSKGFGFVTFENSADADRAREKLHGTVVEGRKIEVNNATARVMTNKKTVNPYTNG
# B1: UGUAUCC (DNA:RNA)
# RNA: GGGAGACCGGAAUUCAGAUUGUCCUGUAUCCUUAAAUCCCGUCGUAGCCACCA
# DNA 1: CAATCTGAATTCCGGTCTCCC
# DNA 2: TGGTGGCTACGACGGGATT
# B2: AGCUAAU (DNA:RNA)
# RNA: B1 RNA with U25A, U27C, A28U, U29A, C30A, C31U
# DNA 1: CAATCTGAATTCCGGTCTCCC
# DNA 2: TGGTGGCTACGACGGGATT
# B3: UUGUUCU (DNA:RNA)
# RNA: B1 RNA with G26U, U27G, A28U, C31U
# DNA 1: CAATCTGAATTCCGGTCTCCC
# DNA 2: TGGTGGCTACGACGGGATT
# B4: UCUGUCC (DNA:RNA)
# RNA: B1 RNA with G26C, A28G
# DNA 1: CAATCTGAATTCCGGTCTCCC
# DNA 2: TGGTGGCTACGACGGGATT
# B5: UGGCAGC (DNA:RNA)
# RNA: B1 RNA with U27G, A28C, U29A, C30G
# DNA 1: CAATCTGAATTCCGGTCTCCC
# DNA 2: TGGTGGCTACGACGGGATT
# B6: GAAAUUA (DNA:RNA)
# RNA: B1 RNA with U25G, G26A, U27A, C30U, C31A
# DNA 1: CAATCTGAATTCCGGTCTCCC
# DNA 2: TGGTGGCTACGACGGGATT
# B7: CGCCUGA (DNA:RNA)
# RNA: B1 RNA with U25C, U27C, A28C, C30G, C31A
# DNA 1: CAATCTGAATTCCGGTCTCCC
# DNA 2: TGGTGGCTACGACGGGATT
# B8: CUCUAUG (DNA:RNA)
# RNA: GGGAGACCGGAAUUCAGAUUGUCCCUCUAUGUUAAAUCCCGUCGUAGCCACCA
# DNA 1: CAATCTGAATTCCGGTCTCCC
# DNA 2: TGGTGGCTACGACGGGATT
# B9: CGAGACA (DNA:RNA)
# RNA: B8 RNA with U26G, C27A, U28G, U30C, G31A
# DNA 1: CAATCTGAATTCCGGTCTCCC
# DNA 2: TGGTGGCTACGACGGGATT
# B10: UCUAAUU (DNA:RNA)
# RNA: B1 RNA with G26C, U29A, C30U, C31U
# DNA 1: CAATCTGAATTCCGGTCTCCC
# DNA 2: TGGTGGCTACGACGGGATT
# B11: AGUAUAC (DNA:RNA)
# RNA: B1 RNA with U25A, C30A
# DNA 1: CAATCTGAATTCCGGTCTCCC
# DNA 2: TGGTGGCTACGACGGGATT
# B12: UGGGGAU (DNA:RNA)
# RNA: B1 RNA with U27G, A28G, U29G, C30A, C31U
# DNA 1: CAATCTGAATTCCGGTCTCCC
# DNA 2: TGGTGGCTACGACGGGATT
# B13: GCGGCCA (DNA:RNA)
# RNA: B1 RNA with U25G, G26C, U27G, A28G, U29C, C31A
# DNA 1: CAATCTGAATTCCGGTCTCCC
# DNA 2: TGGTGGCTACGACGGGATT
# B14: AACGCGU (DNA:RNA)
# RNA: B8 RNA with C25A, U26A, U28G, A29C, U30G, G31U
# DNA 1: CAATCTGAATTCCGGTCTCCC
# DNA 2: TGGTGGCTACGACGGGATT
# B15: GACCAAC (DNA:RNA)
# RNA: B8 RNA with C25G, U26A, U28C, U30A, G31C
# DNA 1: CAATCTGAATTCCGGTCTCCC
# DNA 2: TGGTGGCTACGACGGGATT
# B16: CCUCAUA (DNA:RNA)
# RNA: B8 RNA with U26C, C27U, U28C, G31A
# DNA 1: CAATCTGAATTCCGGTCTCCC
# DNA 2: TGGTGGCTACGACGGGATT
# B17: ACUCCAA (DNA:RNA)
# RNA: B1 RNA with U25A, G26C, A28C, U29C, C30A, C31A
# DNA 1: CAATCTGAATTCCGGTCTCCC
# DNA 2: TGGTGGCTACGACGGGATT
# B18: GCAACGU (DNA:RNA)
# RNA: B1 RNA with U25G, G26C, U27A, U29C, C30G, C31U
# DNA 1: CAATCTGAATTCCGGTCTCCC
# DNA 2: TGGTGGCTACGACGGGATT
# B19: UUACAUA (DNA:RNA)
# RNA: B8 RNA with C25U, C27A, U28C, G31A
# DNA 1: CAATCTGAATTCCGGTCTCCC
# DNA 2: TGGTGGCTACGACGGGATT
# B20: UGCUGGU (DNA:RNA)
# RNA: B8 RNA with C25U, U26G, A29G, U30G, G31U
# DNA 1: CAATCTGAATTCCGGTCTCCC
# DNA 2: TGGTGGCTACGACGGGATT
# B21: CCCUCGG (DNA:RNA)
# RNA: B8 RNA with U26C, A29C, U30G
# DNA 1: CAATCTGAATTCCGGTCTCCC
# DNA 2: TGGTGGCTACGACGGGATT
# B22: AUCCGGA (DNA:RNA)
# RNA: B8 RNA with C25A, U28C, A29G, U30G, G31A
# DNA 1: CAATCTGAATTCCGGTCTCCC
# DNA 2: TGGTGGCTACGACGGGATT
# B23: UUUGACG (DNA:RNA)
# RNA: B8 RNA with C25U, C27U, U28G, U30C
# DNA 1: CAATCTGAATTCCGGTCTCCC
# DNA 2: TGGTGGCTACGACGGGATT
# B24: AGCACGU (DNA:RNA)
# RNA: B1 RNA with U25A, U27C, U29C, C30G, C31U
# DNA 1: CAATCTGAATTCCGGTCTCCC
# DNA 2: TGGTGGCTACGACGGGATT
# B25: UCGUUAU (DNA:RNA)
# RNA: B1 RNA with G26C, U27G, A28U, C30A, C31U
# DNA 1: CAATCTGAATTCCGGTCTCCC
# DNA 2: TGGTGGCTACGACGGGATT
# B26: UCACUCG (DNA:RNA)
# RNA: B1 RNA with G26C, U27A, A28C, C31G
# DNA 1: CAATCTGAATTCCGGTCTCCC
# DNA 2: TGGTGGCTACGACGGGATT
# B27: CACAUGA (DNA:RNA)
# RNA: B8 RNA with U26A, U28A, A29U, U30G, G31A
# DNA 1: CAATCTGAATTCCGGTCTCCC
# DNA 2: TGGTGGCTACGACGGGATT
# B28: CCUCCAU (DNA:RNA)
# RNA: B8 RNA with U26C, C27U, U28C, A29C, U30A, G31U
# DNA 1: CAATCTGAATTCCGGTCTCCC
# DNA 2: TGGTGGCTACGACGGGATT
# B29: CUCCGCA (DNA:RNA)
# RNA: B8 RNA with U28C, A29G, U30C, G31A
# DNA 1: CAATCTGAATTCCGGTCTCCC
# DNA 2: TGGTGGCTACGACGGGATT
# B30: UGGAAUG (DNA:RNA)
# RNA: B8 RNA with C25U, U26G, C27G, U28A
# DNA 1: CAATCTGAATTCCGGTCTCCC
# DNA 2: TGGTGGCTACGACGGGATT
# B31: UGUGUGA (DNA:RNA)
# RNA: B1 RNA with A28G, C30G, C31A
# DNA 1: CAATCTGAATTCCGGTCTCCC
# DNA 2: TGGTGGCTACGACGGGATT
# Biological target: T1, RBFOX1 RRM
# Assay: EMSA; HiTS-Eq, 1 nM pool, 10 min; buffer printed only for the single-RNA assays: 10 mM Tris pH 7.5, 150 mM NaCl, 3.4 mM EDTA, 0.001% NP-40, 30 C
# Settings: tags: His6 N-terminal (pET28a); label: 5' 32P
# Summary of the method: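 Purified wild-type or mutant RbFox RRM at increasing concentrations was equilibrated with 1 nM of 5′-radiolabelled RNA carrying 7 randomized nucleotides for 10 min in 50 µL. Unbound RNA was separated by 8% native PAGE and sequenced. Relative association constants came from read-count changes of each RNA species compared with the control reaction, normalised to the cognate motif.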
row,Binder,binding signal
1,B1,0.00808 KA relative to UGCAUGU
2,B2,0.0041 KA relative to UGCAUGU
3,B3,0.0231 KA relative to UGCAUGU
4,B4,0.00944 KA relative to UGCAUGU
5,B5,0.0144 KA relative to UGCAUGU
6,B6,0.004 KA relative to UGCAUGU
7,B7,0.0212 KA relative to UGCAUGU
8,B8,0.013 KA relative to UGCAUGU
9,B9,0.0066 KA relative to UGCAUGU
10,B10,0.00397 KA relative to UGCAUGU
11,B11,0.0035 KA relative to UGCAUGU
12,B12,0.0193 KA relative to UGCAUGU
13,B13,0.0176 KA relative to UGCAUGU
14,B14,0.00909 KA relative to UGCAUGU
15,B15,0.00558 KA relative to UGCAUGU
16,B16,0.00439 KA relative to UGCAUGU

row,Binder,binding signal
1,B17,0.000959 KA relative to UGCAUGU
2,B18,0.00826 KA relative to UGCAUGU
3,B19,0.00214 KA relative to UGCAUGU
4,B20,0.028 KA relative to UGCAUGU
5,B21,0.00996 KA relative to UGCAUGU
6,B22,0.0045 KA relative to UGCAUGU
7,B23,0.0112 KA relative to UGCAUGU
8,B24,0.0367 KA relative to UGCAUGU
9,B25,0.011 KA relative to UGCAUGU
10,B26,0.00518 KA relative to UGCAUGU
11,B27,0.00324 KA relative to UGCAUGU
12,B28,0.00284 KA relative to UGCAUGU
13,B29,0.00764 KA relative to UGCAUGU
14,B30,0.0953 KA relative to UGCAUGU
15,B31,0.0276 KA relative to UGCAUGU
